The values below come from the RNAGym collection of RNA variant scans (doi:10.7554/elife.90254).

The labels stand for the following.
B1: LINE1-full (parent)
chain: UACGUAGGUGGUUUUCCCCUGAUAGUGCUAAGGGGGCCUGGAAGUUUGGACUGGGCAGAGCUCAACACAGCGUGGCAAAGUGGCUGUGGCUAGACUGCCUCUCUGGAUUCCUCGUCACUCAGCAGGGCAUCUCUGAGAGAAAUGCC

The source gives no read counts; variants with many changes may rest on few reads.

In this data set the parent is B1. Put plainly: self-cleavage, relative activity (ratio to wild type); higher = more cleavage; in vitro, sequencing; the parent is a self-cleaving ribozyme.
For A77G U119A A142G, the self-cleavage stood at 2.6.
On to U26C A30G A59G, for which the self-cleavage came to 0.32.
Regarding U15C U108C U134C, the self-cleavage was 0.57.
For G75U C120U G126A, the self-cleavage was determined as 0.87.
As to U62C U73A G105A U112C A117C G135A, the self-cleavage turned out to be 0.04.
With A94G U119A A121G, the self-cleavage worked out at 0.61.
G8U C16U U132A: the self-cleavage is 0.
Take U96C U100C A140G: the self-cleavage came out at 0.61.
For G114A A117U A141G A142G, the self-cleavage came out at 0.95.
For the variant A2C U14C A94G, the self-cleavage was determined as 0.1.
As to A6G U73C A124U, the self-cleavage was 2.57.
As for U5C A59G U134C, the figure is 0.29; as for A2G C16G U87A U115C, 0.
As to U85C U115C A124U, the self-cleavage amounted to 0.31.
As to A6U G27A C95U, the self-cleavage is 0.22.
In the case of A2G A64U A94G U100C A129U, the self-cleavage was determined as 0.32.
Regarding U45A U102C U132C, the self-cleavage worked out at 1.41.
For the variant A24U U87C U91A U109A, the self-cleavage came out at 0.17.
Turning to A59G A65G C128U, the self-cleavage amounted to 0.08.
To A6G U73A U119C belongs 1.84.
Turning to A24G A64G C145U C146A, the self-cleavage came out at 1.27.
Regarding U62C A117U C120U, the self-cleavage turned out to be 0.01.
With U5C U130C A136U, the self-cleavage was 1.28.
Take A31G A57U U62C G88A: the self-cleavage worked out at 0.01.
With U87C A117C A140G, the self-cleavage was determined as 0.42.
Consider G7A U9C U108C, for which the self-cleavage stood at 1.59.
With A6G A22G U62G, the self-cleavage is 0.
On to A24G A42G U46C G70A A77G A121G U143A, for which the self-cleavage stood at 1.08.
With U13C U81C U119C A124G, the self-cleavage worked out at 1.31.
With U15C U102C U115G A121U, the self-cleavage was 2.45.
Take U5C A42G A50U U62C: the self-cleavage came out at 0.26.
Regarding U26C A59G C63U G72U U112C A140G, the self-cleavage was 0.05.
As to U12C U39C A136U A142G, the self-cleavage worked out at 0.4.
With U23C A65G C120U U132C, the self-cleavage was 0.08.
As for A43G G44U G70U U87A A117G, the self-cleavage came out at 0.07.
Turning to U62C A67G A77G, the self-cleavage turned out to be 0.
To U12A U52A C98U belongs 0.2; to U14A G21A A129U C145U, 1.64.
As for U1A A6G A50G U100C, the figure is 0; as for G10A U20A U26C, 0.56; as for U12C G44A A65G, 0.17.
In the case of U26A U39C C131U A136G, the self-cleavage was 1.02.
Consider U15A C37G A42G U62C, for which the self-cleavage was found to be 0.
For the variant G8A C16A A136U, the self-cleavage worked out at 0.09.
As for U13A A43U G60A A69C, the self-cleavage is 0.06.
For A31C U47A A67U A124U, the self-cleavage is 0.12.
U39C A42G U85C: the self-cleavage amounted to 0.
To U5A A30U U112C belongs 0.91.
As for U13C U26C C51U U85C, the figure is 0.
To A64U G114A U119A belongs 0.38; to U73C A77G A138G, 0.92.
As for U1A U9C U13C A67G U96C C146U, the self-cleavage was determined as 0.92.
In the case of U13C A50G U119C A129G, the self-cleavage stood at 1.72.
As for U52C U96A U104A, the figure is 0.09; as for A43G U46C U134A, 1.96.
Turning to A24G U26C A107G, the self-cleavage came to 1.02.
For U20C U52G A78G, the self-cleavage turned out to be 1.15.
Take U26C A69U A107G: the self-cleavage was found to be 0.05.
Take U23C U39A G106A: the self-cleavage is 2.56.
To U15A C66U C98G A141G belongs 0.05; to A43G U47C A141G, 1.7.
As for A42G A79G U112C A138G, the figure is 1.15; as for U1A U14C U112A A129C, 1.84; as for C37U U45A A67G, 0.24.
Regarding A65U U85A A138G, the self-cleavage was found to be 0.05.
As for U9A C19U U109C A121G, the self-cleavage worked out at 0.42.
Take A43U A65G U132C: the self-cleavage came to 0.
As for G4A U13A U62C U115A, the figure is 0.12; as for C61U A69G U134A, 0.06.
To U26C U109C U112C belongs 0; to U1C U26A C99A U102C, 0.42; to A43G U45C U87C, 0.
On to A59U G60A U102C U104C A117G, for which the self-cleavage was determined as 0.11.
As for A42U G89A U143A, the self-cleavage was determined as 0.03.
As for A57U U81C A107G U119C, the self-cleavage was 0.
For A43U A78G U87A A129G C146A, the self-cleavage was 0.1.
For the variant U9A G40A A79G U96C, the self-cleavage turned out to be 0.05.
Regarding G34A U81A U108C C116U A140U, the self-cleavage stood at 2.22.
As for A42U U62C U108C U119A, the self-cleavage amounted to 0.06.
Regarding U20C A43G C84U U104C U134G, the self-cleavage was found to be 0.29.
As to A67G U87A A92U, the self-cleavage amounted to 0.08.
Take U20C A22G U115C: the self-cleavage is 1.08.
On to U14C A50G A140G, for which the self-cleavage was determined as 1.04.
For U20C U132C A136C, the self-cleavage is 0.66.
Take U9A U13G U47C A78G A136G: the self-cleavage was 1.6.
To U20A U52G C68U A94G belongs 0.17; to U15A U47A G126A A142G, 1.07; to A43G G54A A107U U143C, 0.21.
In the case of U5A A69U A79G U81C U108C, the self-cleavage came out at 0.
Take U20C C51A A69G: the self-cleavage was 0.42.
As to U20C A79G A117U G126A, the self-cleavage is 1.97.
Take U26A U73A U96C: the self-cleavage was found to be 0.11.
As for U52C A64U U91A C116U, the figure is 0.12.
For the variant U12C A69G A92G, the self-cleavage was determined as 0.
To A6G U109C G135A belongs 0.7.
As for A42G A64G G126U, the figure is 0.28; as for U5C U14A A94G, 1.78; as for U23C U45C A141G, 0.69.
As to U15C U29A U108C, the self-cleavage amounted to 0.92.
Turning to A50U A57U A64G, the self-cleavage is 0.11.
For the variant U1C A42U A141G, the self-cleavage was determined as 0.58.
With U14A A79G A117U, the self-cleavage worked out at 0.62.
U73A A129G U134C: the self-cleavage amounted to 1.23.
Consider U12G A59G A67G A117U G144A, for which the self-cleavage came out at 0.69.
In the case of A31U A124G C145U, the self-cleavage amounted to 0.
With C19U A78G A140G, the self-cleavage amounted to 1.39.
On to G4A A31U U45C U108C U132C, for which the self-cleavage turned out to be 1.53.
On to U14C U47A A121G, for which the self-cleavage was determined as 1.08.
For the variant A30G A67U G89A, the self-cleavage is 0.05.
In the case of A64U G72U U81C, the self-cleavage was determined as 0.33.
As to A69U C71U U73C A107U U108C, the self-cleavage is 0.07.
For the variant A6U A59G A107U, the self-cleavage stood at 0.25.
As for U9C U39C A43G C113A A124G, the figure is 0.58.
As for U20A U73A C84A U104C, the self-cleavage turned out to be 0.15.
In the case of A2G U96C U100A A140G, the self-cleavage is 0.3.
In the case of U15A A67G U115A A138G, the self-cleavage was determined as 0.11.
As to U9C A129G A142U, the self-cleavage was 1.86.
With U12C U14C G34A U96A A140G G144A, the self-cleavage was 0.12.
As for U119C A138U A142G, the self-cleavage came out at 1.1.
Consider A22G A30G U39C C51U A129U A136G, for which the self-cleavage came to 0.97.
For the variant A78G U112A U115C A129G, the self-cleavage is 0.
Regarding C17U U73C C84G C146U, the self-cleavage amounted to 0.03.
In the case of A30U U73A U91C U96A G114A, the self-cleavage worked out at 0.01.
For A6G C38U A42G U87C A140U, the self-cleavage came to 0.28.
A24G A43G U45C U47C A50U A142G: the self-cleavage came out at 1.15.
Take U14C U26C A50G U52A A57G G89C: the self-cleavage worked out at 0.
Take G10A G34A U52C A141G: the self-cleavage stood at 1.
As for U15C G34A A57G U96C A140G, the self-cleavage turned out to be 0.23.
Consider U39C U45C A65G U96A, for which the self-cleavage is 0.
In the case of U15C G35U A69G, the self-cleavage stood at 0.23.
With U13A U45C A77G U102C, the self-cleavage amounted to 1.23.
For the variant A94C U132A U143C, the self-cleavage is 0.
Regarding G35U U47C A121C, the self-cleavage was found to be 0.91.
U15C C131U A140G: the self-cleavage is 1.52.
As to G49A U62C U108C A121U A129G, the self-cleavage worked out at 0.03.
Regarding U47C U96C U112A, the self-cleavage amounted to 0.
Turning to U29C G137A U143C, the self-cleavage stood at 1.16.
On to U9A U14C U130C A141G, for which the self-cleavage stood at 1.05.
For the variant G44U A69G A140G A142G, the self-cleavage was 0.67.
Consider U9C A94G C99U A138G, for which the self-cleavage turned out to be 0.21.
Take U23A U62C A64G U100C: the self-cleavage was determined as 0.22.
Regarding G8C U46C C68U, the self-cleavage was 0.37.
To A64G C71U G75C C123G belongs 0.03; to A22C U62C A92G U132C, 0.
As for A22G U96A A129U, the self-cleavage stood at 0.53.
Regarding A22G A65G G72A U73A A78G A117G, the self-cleavage was determined as 0.
Take U15A A42G U102C: the self-cleavage was determined as 0.69.
Consider U20C U39C U62C U73A U81C U104C A117U, for which the self-cleavage turned out to be 0.
In the case of U9C A64G C120A, the self-cleavage was found to be 0.25.
For U39C A57G U112A, the self-cleavage was 1.
On to A50G A77U U91G, for which the self-cleavage was 0.06.
Turning to U62C A79G G88A, the self-cleavage was 0.03.
Consider U23C G36A C63U A94U U143C, for which the self-cleavage came to 0.11.
As for U5A A22G U45C A79G G80A, the figure is 0.89; as for U12A G36A A94G A136G U143C, 0; as for U81C U112A U115A A141G, 1.28.
As for U26G U62A U134C, the figure is 0.22; as for U9C U15C U73C, 1.31.
Take U14C U39C A65U U85C: the self-cleavage was determined as 0.67.
Consider A59G A64G U134A, for which the self-cleavage is 0.09.
To A6G U100C U102A A124U belongs 1.53; to U14C U115G A138G, 2.08; to U39A A43G A57G, 0.43.
To A42G U115A A124U belongs 0.78.
On to U52C A65G U73A G122A U143C, for which the self-cleavage was determined as 0.
Take G44A U45C U100C A107G A124U: the self-cleavage worked out at 1.8.
As to U26A A77U A140U, the self-cleavage came out at 1.04.
